Data reported in paper PMC4336329 (PLoS ONE, 2015).
Screen size: about 310,000 compounds; about 2,200 (0.71%) showed an effect of 50% or more. Effects have a minus sign here. This is one part of the list.

biological target: human ether-à-go-go-related gene (hERG) potassium channel (human, UniProt Q12809); test: primary screen, population patch clamp on CHO cells stably expressing hERG
Sequence (Q12809 whole entry, looked up): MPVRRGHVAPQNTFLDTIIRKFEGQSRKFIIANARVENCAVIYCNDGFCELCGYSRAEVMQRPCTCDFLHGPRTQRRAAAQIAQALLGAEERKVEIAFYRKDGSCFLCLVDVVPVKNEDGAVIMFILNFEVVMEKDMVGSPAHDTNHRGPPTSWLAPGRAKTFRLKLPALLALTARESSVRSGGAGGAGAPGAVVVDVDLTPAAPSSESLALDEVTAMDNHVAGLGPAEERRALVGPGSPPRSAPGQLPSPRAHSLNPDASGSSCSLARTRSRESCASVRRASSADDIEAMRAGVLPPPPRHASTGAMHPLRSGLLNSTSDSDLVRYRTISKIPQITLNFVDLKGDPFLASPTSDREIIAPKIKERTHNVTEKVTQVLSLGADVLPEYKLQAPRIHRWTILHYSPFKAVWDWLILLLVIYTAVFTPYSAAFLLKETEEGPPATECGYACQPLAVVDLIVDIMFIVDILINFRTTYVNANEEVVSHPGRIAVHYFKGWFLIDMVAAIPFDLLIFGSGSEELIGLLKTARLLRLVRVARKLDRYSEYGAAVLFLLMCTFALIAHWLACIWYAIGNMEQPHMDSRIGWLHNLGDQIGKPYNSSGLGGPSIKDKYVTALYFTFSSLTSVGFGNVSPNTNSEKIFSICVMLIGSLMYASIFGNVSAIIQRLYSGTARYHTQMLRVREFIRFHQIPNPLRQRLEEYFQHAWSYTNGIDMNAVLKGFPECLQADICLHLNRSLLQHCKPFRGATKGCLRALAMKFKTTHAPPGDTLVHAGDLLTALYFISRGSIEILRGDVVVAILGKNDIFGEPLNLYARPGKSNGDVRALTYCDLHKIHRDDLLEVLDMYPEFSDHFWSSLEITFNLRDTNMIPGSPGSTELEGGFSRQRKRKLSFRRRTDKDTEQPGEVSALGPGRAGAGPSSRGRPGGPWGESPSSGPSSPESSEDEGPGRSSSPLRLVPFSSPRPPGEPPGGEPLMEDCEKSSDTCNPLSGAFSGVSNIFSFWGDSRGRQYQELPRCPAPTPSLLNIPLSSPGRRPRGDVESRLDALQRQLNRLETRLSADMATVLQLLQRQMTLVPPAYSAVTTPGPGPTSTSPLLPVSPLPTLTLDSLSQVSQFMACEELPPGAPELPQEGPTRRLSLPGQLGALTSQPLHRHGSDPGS

Row | SMILES | hERG current change (%, negative = inhibition) at 1uM
1 | COc1cc(/C=N/N2C(C)CCCC2C)cc(OC)c1O (stereo not drawn) | 9.22%
2 | CC(C)(C)CNC(=O)c1ccc2c(c1)S(=O)(=O)c1cc(Cl)ccc1C2=O | 12.6%
3 | O=C(NCc1ccc(Cl)cc1)c1ccc2c(=O)n(CC3CCCO3)c(=S)[nH]c2c1 (stereo not drawn) | 11.9%
4 | CCOC(=O)C1(CCc2ccccc2)CCN(Cc2cc(OC)c(OC)cc2OC)CC1 | -68.1%
5 | CC(OC(=O)CCCN=C1NS(=O)(=O)c2ccccc21)C(=O)N(C)c1ccccc1 (stereo not drawn) | 6.26%
6 | Cc1ccccc1Cn1c(=O)n(CCC(=O)NCc2ccc3c(c2)OCO3)c(=O)c2ccccc21 | 16.7%
7 | O=C(NCCCN1CCN(c2ccccc2F)CC1)C1CCN(S(=O)(=O)c2cccs2)CC1 | -32.2%
8 | Cl.NCCOc1ccccc1OCCN | -4.63%
9 | COC(=O)C1(C#N)C(c2ccccc2)C1(C(=O)OC)C(=O)OC (stereo not drawn) | 13.9%
10 | CCCc1nnc(NC(=O)Cn2cnc3ccccc3c2=O)s1 | 10.9%
11 | CCOc1cc(N2CCOCC2)c(OCC)cc1NC(=O)CN1CCCC1 | 5.58%
12 | CCN(C(=O)COC(=O)c1ccc(C)c(S(=O)(=O)N2CCOCC2)c1)C1CCS(=O)(=O)C1 (stereo not drawn) | 4.59%
13 | Cc1nnc(N/N=C/c2ccc(-c3ccc(Br)cc3)o2)n1N.Cl | 10.3%
14 | COc1ccccc1OCCn1nnc2ccccc21 | 11%
15 | CN(C)c1ccc(/C=C/C(=O)c2ccc3c(c2)OCO3)cc1 | 13.7%
16 | COc1ccc(C2(C)NC(=O)N(CC(=O)NCc3ccccc3F)C2=O)cc1 (stereo not drawn) | 9.8%
17 | N#Cc1cc2c(nc1SCc1nc3ccccc3[nH]1)CCC2 | -0.485%
18 | N#CC(C#N)=Cc1ccc(N2CCOCC2)cc1 | 5.01%
19 | Cc1cc(C)c(NC(=O)c2cc(C(=O)O)ccc2C(=O)O)c([N+](=O)[O-])c1 | 12.5%
20 | COCCOCC(=O)Nc1ccc(S(=O)(=O)Nc2cc(C)nc(C)n2)cc1 | 14.6%
21 | COc1ccc(S(=O)(=O)N2CCC(C(=O)N3CCN(C)CC3)CC2)cc1OC | 4.86%
22 | CCCCn1c(N)c(N(CC(C)C)C(=O)Cn2c(=O)oc3ccccc32)c(=O)[nH]c1=O | 11.8%
23 | Cc1cc(C)c2nc(N)sc2c1 | 16.2%

Row | SMILES | hERG current change (%, negative = inhibition) at 1uM
24 | O=C(Cc1ccccc1)NNC(=O)C1CCCC1 | 6.84%
25 | COc1ccc(N2CCN(c3nc(Cl)nc(N4CCOCC4)n3)CC2)cc1 | -2.57%
26 | Cc1ccc(S(=O)(=O)Oc2ccccc2N2C(=O)C3C4CCC(C4)C3C2=O)cc1 (stereo not drawn) | 6.63%
27 | CC(C)Sc1nc2c([nH]c3ccccc32)c(=O)n1C | 14.7%
28 | Cc1ccc(C(=O)N/N=c2\oc3ccccc3cc2C(N)=O)cc1 | -8.21%
29 | O=C(/C=C/c1ccccc1Cl)Nc1ccc(S(=O)(=O)Nc2ncccn2)cc1 | 17.9%
30 | CN(c1ccc(C(=O)NCCSCc2ccco2)cc1)S(C)(=O)=O | 15%
31 | O=C(CNC(=O)c1ccco1)OCc1ccc(Cl)cc1 | 11.4%
32 | C=CCn1c(-c2c[nH]c3ccccc23)n[nH]c1=S | 11.7%
33 | COc1cc(NC(=O)c2ccco2)c(OC)cc1NC(=O)Nc1ccc(Cl)cc1 | 1.29%
34 | CCn1c(C(O)c2cccc(OC)c2OC)nc2ccccc21 (stereo not drawn) | 1.9%
35 | Cc1nn(-c2ccccc2)c(C)c1C(=O)NCCc1ccccc1 | 12.2%
36 | NC(=O)c1ccc(NC(=O)C2COc3ccccc3O2)cc1 (stereo not drawn) | 9.76%
37 | CCOC(=O)CN1C(=O)C2(OCCCO2)c2ccccc21 | 4.86%
38 | CCOc1ccc(NC(=O)COc2ccc3c(c2)OCO3)cc1 | 7.57%
39 | C=CCNS(=O)(=O)c1sccc1/C=N/O | 10.6%
40 | Cc1ccc(CN2CCN(Cc3ccco3)CC2)cc1.O=C(O)C(=O)O | 9.6%
41 | CCc1ccc(-c2nc(SCC(=O)NC3CC3)n[nH]2)cc1 | 9.57%
42 | CC(C)c1nc(C(N)=O)c2[nH]c(=O)n(-c3ccc(F)cc3)c2n1 | 7.46%
43 | COc1ccc(-c2csc(NC(C)c3nc4cc(Cl)c(N5CCCCC5)cc4n3CCCO)n2)cc1 (stereo not drawn) | 16.9%
44 | O=C(NNC(=O)c1cc(-c2ccncc2)nc2ccccc12)c1ccccc1O | 6.1%
45 | COc1cc(OC)cc(-c2c(C#Cc3ccsc3)c3cc(Br)ccc3n2C)c1 | 12.9%
46 | CCCC[n+]1c(C)sc2ccc(C)cc21.[Cl-] | 17.7%

Row | SMILES | hERG current change (%, negative = inhibition) at 1uM
47 | COc1ccc(Br)cc1S(=O)(=O)NNC(=O)c1c(C)nc2ccccn12 | -0.741%
48 | O=C(CC12CC3CC(CC(C3)C1)C2)NC1CC1 | 19.1%
49 | O=C(CSc1nnnn1-c1ccc(F)cc1F)Nc1ccccc1F | 15.7%
50 | O=[N+]([O-])c1ccccc1S(=O)(=O)NCCSc1ccccc1 | 13.3%
51 | O=C(NC(Cc1ccccc1)C(=O)O)c1ccc(S(=O)(=O)N2CCCC2)cc1 (stereo not drawn) | -0.336%
52 | Cc1ccc(C2=Nc3ccccc3N=C(C(Cl)Cl)C2)cc1 | 4.33%
53 | O=C(NNC(=S)NC(=O)c1ccccc1Cl)c1cccc([N+](=O)[O-])c1 | 6.85%
54 | CC(C)CC1c2[nH]c3ccccc3c2CCN1C(=O)c1cnccn1 (stereo not drawn) | 9.53%
55 | CC1=CC(=O)C=C/C1=C(/c1ccc(O)cc1C)c1ccccc1S(=O)(=O)[O-].[Na+] | 13%
56 | Cn1c(NC(=O)c2ccco2)cc(=O)n(C)c1=O | 8.38%
57 | CCOC(=O)/C=C/CN(C(=O)OC(C)(C)C)S(=O)(=O)N1CC=CC1 | 16.6%
58 | O=C(Nc1ccc(Cl)cc1)c1cncs1 | 11.3%
59 | COc1ccc(CCNC(=O)Cn2nnc(-c3cccs3)n2)cc1OC | -1.16%
60 | CN(Cc1ccc2nonc2c1)Cc1nc(CC2CC2)no1 | 5.26%
61 | COc1ccc(-n2c(C)cc(/C=C/c3nc(O)c([N+](=O)[O-])c(=O)[nH]3)c2C)cc1 | 13.7%
62 | CCCC[C@@H]1CNC(=S)N1CCCC | 9.14%
63 | CCCOC(=O)NC(CC)COC(=O)Nc1cc(C)ccc1C (stereo not drawn) | 6.68%
64 | CCC1CCCCN1CCCNC(=O)Cn1cc2c(n1)-c1c(oc(C(=O)N3CCCC3)c1C)CC2 (stereo not drawn) | 18.5%
65 | CCc1ccc(S(=O)(=O)Nc2cc3c(cc2C)n(C)c(=O)n3C)cc1 | 5.77%
66 | Cc1cccnc1CCNC(=O)C1CCC(=O)N(Cc2cccc(F)c2)C1 (stereo not drawn) | 8.44%
67 | CCOc1ccc(NC(=O)CSc2nc3[nH]ncc3c(=O)[nH]2)cc1 | 12.5%
68 | Cc1ccc(-c2[nH]c3ccccc3c2SCCNC(=O)c2cc3ccccc3oc2=O)cc1 | 19.2%
69 | CCCC(=O)N(c1ccc2oc(=O)sc2c1)S(=O)(=O)c1cccs1 | 11.3%

Row | SMILES | hERG current change (%, negative = inhibition) at 1uM
70 | CCCn1c(N)c(C(=O)CSc2nnc(Cc3ccccc3)o2)c(=O)n(C)c1=O | 6.61%
71 | CC(CNC(=O)c1cc(Cl)ccc1[N+](=O)[O-])NC(=O)c1cc(Cl)ccc1[N+](=O)[O-] (stereo not drawn) | 7.84%
72 | COc1c(C)cc(S(=O)(=O)N2CCOCC2)c(C)c1C | 14.3%
73 | CCCOc1ccc(C(=O)NNC(=S)NC(=O)c2ccccc2)cc1 | 19.2%
74 | N#Cc1cccc(NS(=O)(=O)c2ccccc2Cl)c1 | 14.9%
75 | CCCCOc1ccc(C(=O)Oc2ccc(C)nc2)cc1 | 17.3%
76 | CCCCn1c(O)c(C(CC)=Nc2cccc(C(=O)O)c2)c(=O)[nH]c1=O | 1.56%
77 | Cc1ccc(C)c2[nH]c(=O)c(C(c3nnnn3CCc3ccccc3)N3CCOCC3)cc12 (stereo not drawn) | -25.9%
78 | CCCCCn1c2nc3ccccc3nc2c2c(=O)n(CC(C)C)cnc21 | 11.2%
79 | Cl.O.O=C(c1ccc(F)cc1)C1CCN(CCn2c(=S)[nH]c3ccccc3c2=O)CC1 | -77.7%
80 | Cc1ccc(C(=O)N2CCCCC2C(=O)O)o1 (stereo not drawn) | 7.85%
81 | COc1ccc2[nH]c3c(=O)n(CCCCCC(=O)NCCC(C)C)c(=S)[nH]c3c2c1 | 3.48%
82 | Cc1ccc(C)c2[nH]c(=O)c(CCNC(=O)CC(C)C)cc12 | 11.3%
83 | Cc1cc(C)c(S(=O)(=O)c2ccccc2Cl)c(=O)[nH]1 | 10.3%
84 | CC1CCN(C(=O)CN(C2CCCCC2)S(C)(=O)=O)CC1 | 2.88%
85 | O=C(Cc1cccs1)N1CCN(S(=O)(=O)c2cccc([N+](=O)[O-])c2)CC1 | 7.67%
86 | CCCCCCCC(=O)OCC(COC(=O)CCCCCCC)OC(=O)CCCCCCC | 11.2%
87 | CC(=O)c1cccc(NC(=O)CSc2ccc(-c3sc(C)nc3C)nn2)c1 | 8.54%
88 | CCOC(=O)C1CCN(C(=O)COc2cc(C)c(Br)cc2C)CC1 | 5.63%
89 | COc1ccc(OC)c(NC(=O)C2C3CCC(O3)C2C(=O)O)c1 (stereo not drawn) | 10.4%
90 | N#Cc1nc(-c2ccc(OCc3ccccc3)cc2)oc1NCCCn1ccnc1 | 8.19%
